What was measured:
[1] = molecular target: 72 kDa type IV collagenase (Homo sapiens, UniProt P08253)
Interstitial collagenase [2] = molecular target: T1, Interstitial collagenase (Homo sapiens, UniProt P03956)
T1 sequence (P03956 whole entry): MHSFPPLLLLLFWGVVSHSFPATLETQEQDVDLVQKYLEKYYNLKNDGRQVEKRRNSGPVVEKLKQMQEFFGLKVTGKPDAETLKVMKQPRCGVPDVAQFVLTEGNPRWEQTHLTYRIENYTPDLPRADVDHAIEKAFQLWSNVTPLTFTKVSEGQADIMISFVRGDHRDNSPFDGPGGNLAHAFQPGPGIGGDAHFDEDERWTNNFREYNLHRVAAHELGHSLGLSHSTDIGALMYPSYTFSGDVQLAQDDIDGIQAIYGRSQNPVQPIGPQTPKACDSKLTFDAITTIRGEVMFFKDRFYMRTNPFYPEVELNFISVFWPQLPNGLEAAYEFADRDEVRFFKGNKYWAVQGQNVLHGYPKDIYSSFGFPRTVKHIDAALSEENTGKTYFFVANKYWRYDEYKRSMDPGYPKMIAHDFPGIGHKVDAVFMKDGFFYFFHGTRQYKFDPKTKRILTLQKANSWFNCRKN

Interstitial collagenase [3] = molecular target: T1, Interstitial collagenase; remark: listed apart in the source
Matrilysin = molecular target: T2, Matrilysin (Homo sapiens, UniProt P09237)
T2 sequence (P09237 whole entry): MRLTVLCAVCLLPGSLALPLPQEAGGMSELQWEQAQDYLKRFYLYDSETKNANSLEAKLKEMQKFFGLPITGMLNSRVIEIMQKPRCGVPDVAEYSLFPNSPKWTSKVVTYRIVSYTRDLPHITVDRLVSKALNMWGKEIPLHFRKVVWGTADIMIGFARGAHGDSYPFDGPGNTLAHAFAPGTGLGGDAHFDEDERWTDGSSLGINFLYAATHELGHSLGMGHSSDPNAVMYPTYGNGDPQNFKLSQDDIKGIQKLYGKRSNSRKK

72 kDa type IV collagenase, sequence (P08253 whole entry): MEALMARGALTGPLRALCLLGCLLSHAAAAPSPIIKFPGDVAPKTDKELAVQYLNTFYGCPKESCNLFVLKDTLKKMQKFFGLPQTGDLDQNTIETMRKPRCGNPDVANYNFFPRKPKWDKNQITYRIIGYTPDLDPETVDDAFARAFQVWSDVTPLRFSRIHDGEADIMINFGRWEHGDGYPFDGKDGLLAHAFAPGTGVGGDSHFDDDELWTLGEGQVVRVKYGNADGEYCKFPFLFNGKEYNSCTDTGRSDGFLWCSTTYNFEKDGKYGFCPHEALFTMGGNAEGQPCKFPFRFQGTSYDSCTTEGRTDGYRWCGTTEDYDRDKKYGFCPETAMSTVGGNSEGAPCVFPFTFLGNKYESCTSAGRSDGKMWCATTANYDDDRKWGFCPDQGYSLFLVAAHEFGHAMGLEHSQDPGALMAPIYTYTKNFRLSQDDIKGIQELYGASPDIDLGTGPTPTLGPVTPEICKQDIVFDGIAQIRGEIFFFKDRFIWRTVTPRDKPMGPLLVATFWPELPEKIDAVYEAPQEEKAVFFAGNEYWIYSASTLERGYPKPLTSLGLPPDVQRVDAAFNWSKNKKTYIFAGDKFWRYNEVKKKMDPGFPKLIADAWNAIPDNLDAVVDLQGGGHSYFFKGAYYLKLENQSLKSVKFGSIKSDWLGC

**Q.** For `CNC(=O)[C@@H](NC(=O)[C@H](CCCCCCCCCCCCCCO)CC(=O)NO)C(C)(C)C`, which IC50 [1] is on record?
**A.** The IC50 was 0.0005 µM.

**Q.** What about the IC50 (Interstitial collagenase [2]) of the same molecule?
**A.** Its IC50 is 0.3 µM.

**Q.** What does the source list for `CCCCCCCCCCCCCCC[C@H](CC(=O)O)C(=O)N[C@H](C(=O)NC)C(C)(C)C`?
**A.** IC50 [1]: 0.09 µM; IC50 (Interstitial collagenase [3]): 8 µM

**Q.** For `CCCCCCCC[C@H](CC(=O)NO)C(=O)N[C@H](C(=O)NC)C(C)(C)C`, which IC50 [1] is on record?
**A.** The IC50 was 0.0007 µM.

**Q.** And the IC50 (Interstitial collagenase [2])?
**A.** Its IC50 is 0.1 µM.

**Q.** `CCCCCCCCCCCCC[C@H](CC(=O)NO)C(=O)N[C@H](C(=O)NC)C(C)(C)C` was tested. Which IC50 [1] did it give?
**A.** The IC50 was 0.003 µM.

**Q.** What about the IC50 (Interstitial collagenase [2]) of the same molecule?
**A.** The IC50 was 3 µM.

**Q.** Which IC50 [1] does the source give for `CCCCCCCC[C@H](CC(=O)O)C(=O)N[C@H](C(=O)NC)C(C)(C)C` here?
**A.** Its IC50 is 0.9 µM.

**Q.** And the IC50 (Interstitial collagenase [3])?
**A.** Its IC50 is 20 µM.

**Q.** How did the IC50 [1] turn out when `CCCCCCCCCCCCCC[C@H](CC(=O)O)C(=O)N[C@H](C(=O)NC)C(C)(C)C` was run?
**A.** The IC50 was 0.05 µM.

**Q.** Which IC50 [1] does the source give for `CCCCCCCCCCCCC[C@H](CC(=O)O)C(=O)N[C@H](C(=O)NC)C(C)(C)C` here?
**A.** The IC50 was 0.1 µM.

**Q.** And the IC50 (Interstitial collagenase [3])?
**A.** The IC50 was 5 µM.

**Q.** Which IC50 [1] does the source give for `CNC(=O)[C@H](Cc1ccccc1)NC(=O)[C@H](CCCCCOc1ccccc1)CC(=O)NO` here?
**A.** Its IC50 is 0.00031 µM.

**Q.** Which results are given for `CCCCCCCCCCCCCCCC[C@H](CC(=O)NO)C(=O)N[C@H](C(=O)NC)C(C)(C)C`?
**A.** IC50 [1]: 0.0006 µM; IC50 (Matrilysin): 5 µM; IC50 (Interstitial collagenase [2]): 5 µM

**Q.** For `CCCCCCCCC[C@H](CC(=O)NO)C(=O)N[C@H](C(=O)NC)C(C)(C)C`, which IC50 [1] is on record?
**A.** Its IC50 is < 0.00015 µM.

**Q.** `CCCCCCCCCCCCCCCC[C@H](CC(=O)O)C(=O)N[C@H](C(=O)NC)C(C)(C)C` was tested. Which IC50 [1] did it give?
**A.** Its IC50 is 0.03 µM.

**Q.** For `CCCCCCCCCCCCCC[C@H](CC(=O)NO)C(=O)N[C@H](C(=O)NC)C(C)(C)C`, which IC50 [1] is on record?
**A.** Its IC50 is 0.0008 µM.

**Q.** And the IC50 (Interstitial collagenase [2])?
**A.** Its IC50 is 3 µM.

From ChEMBL document CHEMBL1130307, “Inhibition of Matrix Metalloproteinases: An examination of the S1 pocket” (Bioorg Med Chem Lett, 1997)
